The campaign covered roughly 340,000 compounds. About 6,900 (2%) were called active. Rule as the data show it: active = inhibition above about 30%; inactive = below that, where a call was filed. Only a part is listed here, and it is no random draw. Where no call is shown, the source filed none. A structure can be active in one record and inactive in another.
biological target: D(2) dopamine receptor (Homo sapiens) (UniProt P14416); test: HTS Assay for Allosteric Antagonists of the Human D2 Dopamine Receptor: Primary Screen for Antagonists; settings: HEK293 TREx D2 cells, calcium flux, dopamine EC80; at 10 µM; stronger effect = higher value; also: 0% is about no effect
Summary of the method: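 Dopamine at EC80 is the agonist stimulus; test compounds precede it by 180 s. Calcium flux read kinetically in a force-coupled, inducible HEK293 T-REx D2 cell line.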

Sequence of UniProt P14416 (P14416 whole entry, looked up): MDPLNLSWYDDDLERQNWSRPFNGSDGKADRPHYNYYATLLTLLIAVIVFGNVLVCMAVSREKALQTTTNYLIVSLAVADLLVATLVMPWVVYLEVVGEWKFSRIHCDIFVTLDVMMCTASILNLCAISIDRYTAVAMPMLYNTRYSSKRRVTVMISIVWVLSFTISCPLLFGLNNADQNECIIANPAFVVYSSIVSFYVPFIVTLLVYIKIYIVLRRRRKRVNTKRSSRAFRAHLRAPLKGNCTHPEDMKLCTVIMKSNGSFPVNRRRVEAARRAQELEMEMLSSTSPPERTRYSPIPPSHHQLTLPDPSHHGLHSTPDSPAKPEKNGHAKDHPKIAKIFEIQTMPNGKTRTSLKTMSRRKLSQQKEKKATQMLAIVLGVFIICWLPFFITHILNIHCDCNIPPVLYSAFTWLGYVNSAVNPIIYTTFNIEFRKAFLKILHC

Q: How did the inhibition turn out when `O=C(NCc1ccccc1Cl)c1ccccc1NC(=O)c1nsc2ccccc12` was run?
A: -25.3%

Q: `COc1ccc(N2CCN(C(=O)c3cc4c(=O)n(Cc5ccco5)ccc4nc3C)CC2)cc1` was tested. Which inhibition did it give?
A: 6.77%

Q: Which inhibition does the source give for `CCC(=O)N1CCc2cc(Br)cc(S(=O)(=O)Nc3ccccc3C(=O)OC)c21` here?
A: 2.04%

Q: How did the inhibition turn out when `O=C(CSc1nccn1Cc1ccc(Cl)cc1)Nc1nc2ccccc2s1` was run?
A: 4.41%

Q: With `COCCCNC(=O)c1cc2c(-c3cccc(OC)c3)nn(C)c2s1` as the molecule, how does the inhibition read?
A: 0.091%

Q: How did the inhibition turn out when `Cc1ccccc1CCNC(=O)c1ccc(Cn2c(=O)c3cccn3c3cccnc32)cc1` was run?
A: 25.6%

Q: `CCc1ccc(NC(=O)c2cc(S(=O)(=O)N3CCCC(C)C3)cn2C)cc1` (stereo not given) was tested. Which inhibition did it give?
A: -4.09%

Q: For `COC(=O)C1=C(C)N(C(C)C)C(=O)C1(NC(=O)c1ccccc1OC)C(F)(F)F` (stereo not given), which inhibition is on record?
A: -3.82%

Q: For `COc1ccccc1CNC(=O)C(=O)NCC(c1ccco1)S(=O)(=O)c1ccc(C)cc1` (stereo not given), which inhibition is on record?
A: -11.9%

Q: How did the inhibition turn out when `CCCCCn1c(CCCNC(=O)c2ccc(Cl)cc2)nc2ccccc21` was run?
A: -3.84%

Q: Which inhibition does the source give for `COc1ccc(CNC(=O)CCc2nnc3n(C)c(=O)c4sccc4n23)cc1` here?
A: 23.3%

Q: For `COc1ccc(-c2nc(C(=O)Nc3cccc(C(C)=O)c3)nn2-c2ccccc2Cl)cc1`, which inhibition is on record?
A: 1.05%

Q: For `CCc1ccc(NC(=O)CSc2nc3c(c(=O)[nH]2)CN(Cc2ccc4c(c2)OCO4)CC3)cc1`, which inhibition is on record?
A: 15.1%

Q: Which inhibition does the source give for `Cc1ccc(C)c(N2CCN(S(=O)(=O)c3c(C(=O)N4CCC(C)CC4)c(C)n(C)c3C)CC2)c1` here?
A: -13.4%

Q: For `O=C(CCCc1ccccc1)NC1CC(=O)N(c2cccc(F)c2)C1` (stereo not given), which inhibition is on record?
A: -18%

Q: With `CCOC(=O)c1cc2c(=O)n3ccccc3nc2n(C)c1=NC(=O)c1c(-c2c(F)cccc2Cl)noc1C` as the molecule, how does the inhibition read?
A: 0.689%

Q: How did the inhibition turn out when `CC1(c2ccccc2)NC(=O)N(CC(=O)Nc2ccc(S(=O)(=O)Nc3ncccn3)cc2)C1=O` (stereo not given) was run?
A: active: 50%

Q: With `CCOc1ccc(CNC(=O)C2CCN(C(=O)c3ccc(-n4ccc5ccccc54)s3)CC2)cc1` as the molecule, how does the inhibition read?
A: -8.28%

Q: For `CCOc1ccc(Nc2cc(C(=O)NCc3ccccc3Cl)c3ccccc3n2)cc1`, which inhibition is on record?
A: 20.4%

Q: For `Cc1cccc(NC(=O)Cn2c(=O)n(CCCCCC(=O)NCc3ccccc3)c(=O)c3sccc32)c1`, which inhibition is on record?
A: -1.93%

Q: `CCOC(=O)N1CCN(C(=O)c2ccc3c(c2)N(Cc2ccccc2F)C(=O)c2ccccc2S3(=O)=O)CC1` was tested. Which inhibition did it give?
A: -11.8%

Q: For `O=C(c1ccc(Cl)cc1)N1CCN(CCc2ccncc2)CC1`, which inhibition is on record?
A: 16.4%

Q: `CCN(Cc1ccccc1)c1ncnc2c1cnn2-c1ccc(F)cc1` was tested. Which inhibition did it give?
A: 8.84%

Q: Which inhibition does the source give for `Cc1ccc(-c2nnc(Nc3cccc(Cl)c3)c3ccccc23)cc1S(=O)(=O)N1CCN(C)CC1` here?
A: -13.8%

Q: For `Cc1ccc(Cl)cc1N1CCN(S(=O)(=O)c2cn(C)c(C)n2)CC1`, which inhibition is on record?
A: 19.3%

Q: Which inhibition does the source give for `CCOc1ccccc1C1C(C(=O)Nc2ccccc2)=C(C)Nc2nc(SCC(=O)c3ccc(C)cc3)nn21` (stereo not given) here?
A: -1.09%

Q: `COc1ccc(C(=O)c2sc3nc4c(c(C(F)(F)F)c3c2N)CN(C(C)=O)CC4)cc1OC` was tested. Which inhibition did it give?
A: 2.73%

Q: `Cc1ccc(-c2c3c(=O)n(C)c(=O)n(C)c3c3n2-c2ccccc2NC3c2ccc(C)cc2O)cc1` (stereo not given) was tested. Which inhibition did it give?
A: 9.65%

Q: `O=C(c1cc2ccccc2[nH]1)N(Cc1cccnc1)CC1CCCN(C2CCCCC2)C1` (stereo not given) was tested. Which inhibition did it give?
A: active: 38.8%

Q: How did the inhibition turn out when `COc1ccc(-c2cc(C(=O)N3CCCCC3C)no2)cc1OC` (stereo not given) was run?
A: 0.112%

Q: Which inhibition does the source give for `CCOc1ccc(OCC)c(NC(=O)c2nnn(CC(=O)Nc3cc(Cl)ccc3OC)c2N)c1` here?
A: 2.3%

Q: How did the inhibition turn out when `COc1ccc(C(=O)NCc2ccc3c(c2)CCN3C(C)=O)c(OC)c1` was run?
A: -3.19%

Q: How did the inhibition turn out when `Cc1ccccc1NC(=O)C1CCN(S(=O)(=O)c2c(C)noc2/C=C/c2ccco2)CC1` was run?
A: 2.1%

Q: With `COc1ccc(NC(=O)C2CCCN(c3ncnc4onc(C)c34)C2)cc1OC` (stereo not given) as the molecule, how does the inhibition read?
A: -5.83%

Q: With `CCC(=O)N1CCc2cc(CNC(=O)c3cccc(N(C)C)c3)ccc21` as the molecule, how does the inhibition read?
A: -14.3%

Q: With `CCc1ccccc1N1C(=O)CN(S(=O)(=O)CC)CC1(C)C(=O)NC1CCCCC1` (stereo not given) as the molecule, how does the inhibition read?
A: -3.8%

Q: Which inhibition does the source give for `Cc1ccc(Cn2c(SCc3ccc(C(=O)N4CCCCC4)cc3)nc3ccncc32)cc1` here?
A: -24.6%

Q: Which inhibition does the source give for `CCC(=O)OC1=C(C(C)=O)N(Cc2ccccc2)S(=O)(=O)c2ccccc21` here?
A: -6.16%

Q: Which inhibition does the source give for `CCc1ccccc1NC(=O)Cn1nc(CC)n2c(cc3sccc32)c1=O` here?
A: -10.2%

Q: For `Cn1ncc2c(Nc3cccc(F)c3)ncnc21`, which inhibition is on record?
A: -17.2%

Q: With `CC[n+]1c(-c2ccc(C)cc2)csc1Nc1c(C)n(C)n(-c2ccccc2)c1=O` as the molecule, how does the inhibition read?
A: active: 51.5%

Q: With `CC(C)Sc1ncc(Cl)c(C(=O)Nc2ccc(S(=O)(=O)N(C)c3ccccc3)cc2)n1` as the molecule, how does the inhibition read?
A: 6.04%

Q: With `Fc1ccc2ncc3c(-c4ccccc4)n[nH]c3c2c1` as the molecule, how does the inhibition read?
A: -19.7%

Q: Which inhibition does the source give for `COC(=O)CCn1cnc2onc(-c3cc(F)cc(F)c3)c2c1=O` here?
A: -19.3%

Q: Which inhibition does the source give for `Cc1ccc(C)c(CS(=O)(=O)c2cn(CC(=O)N(C(C)C)C(C)C)c3ccccc23)c1` here?
A: 2.2%

Q: How did the inhibition turn out when `O=C(Nc1c(C(=O)Nc2ccccc2F)oc2ccccc12)c1cc2ccccc2o1` was run?
A: -18.8%

Q: For `COc1ccc(C2CNC(=O)C2)cc1OC1CCCC1` (stereo not given), which inhibition is on record?
A: active: 71.2%

Q: Which inhibition does the source give for `COc1cc(C(CC(=O)NCCC(C)C)N2Cc3ccccc3C2=O)cc(OC)c1OC` (stereo not given) here?
A: -2.97%

Q: Which inhibition does the source give for `COc1ccc(Cl)cc1NC(=O)CN(C)C(=O)CCNC(=O)c1ccccc1OC` here?
A: active: 30.6%

Q: Which inhibition does the source give for `COc1cc(NC(=O)CN2CCN(CC(=O)Nc3ccc(F)cc3)CC2)cc(OC)c1` here?
A: 5.22%

Q: `Cc1ccccc1C(=O)NC1CC2CCCC(C1)N2Cc1ccc(Cl)cc1` (stereo not given) was tested. Which inhibition did it give?
A: active: 75.6%

Q: With `Cc1cccc(N(C)C(=O)CCNS(=O)(=O)c2ccc3c(c2)CCN3C(=O)C2CC2)c1` as the molecule, how does the inhibition read?
A: 9.02%

Q: How did the inhibition turn out when `N#Cc1ccc(CSc2nc3c(c(=O)[nH]2)CCCC3)cc1` was run?
A: -9.15%

Q: Which inhibition does the source give for `Cc1ccc2c(c1)cc1c(=O)n(CC(=O)N3CCCCC3)nc(C)n12` here?
A: 10.7%

Q: For `Cc1cccc(N(C)C(=O)CSc2nc3ncccc3o2)c1`, which inhibition is on record?
A: 2.64%

Q: For `C[C@H](N)c1nnc(SCC(=O)c2ccc(Cl)cc2)o1`, which inhibition is on record?
A: active: 40.4%

Q: With `CCc1ccc(CN2CCN(c3ncccn3)CC2)cc1` as the molecule, how does the inhibition read?
A: active: 94.8%

Q: For `CCc1ccc(C(=O)c2cn(CC(=O)Nc3ccc(C)c(C)c3)c3ccccc3c2=O)cc1`, which inhibition is on record?
A: -2.84%

Q: With `O=C(NCC1CCCO1)c1c[nH]c2ccc(S(=O)(=O)Nc3cccc(C(F)(F)F)c3)cc2c1=O` (stereo not given) as the molecule, how does the inhibition read?
A: 27.2%

Q: For `COc1ccc2c(c1)c1c(c(=O)n(-c3ccccc3)c(=O)n1CC(=O)Nc1ccc(C)c(C)c1)n2C`, which inhibition is on record?
A: -11.8%

Source: PubChem BioAssay AID485344 (National Center for Advancing Translational Sciences (NCATS), 2010)
